{"source": "patent US20230203098A1", "about": "“HUMAN TRANSFERRIN RECEPTOR BINDING PEPTIDE” (priority 2020, published 2023)", "note": "pKd: −log10 of the molar value. Part of at least one peptide drawing is inferred or uncertain, most often the ends. At least one compound was matched to its structure with a doubt left. Where a SMILES comes first, the peptide text is derived from it. Bridges are numbered along the chain shown (N, C = ends). [ ]: non-standard residue; d: D form. The star is where a group is joined. X2 = O=C(O)c1cc(C(=O)*)ccc1-c1c2ccc(=O)cc-2oc2cc(O)ccc12; PEG12 = NCCOCCOCCOCCOCCOCCOCCOCCOCCOCCOCCOCCOCCC(=O)O; Phe(4-Cl) = N[C@@H](Cc1ccc(Cl)cc1)C(=O)O; Gly(NCH2CH2Ph) = O=C(O)CNCCc1ccccc1; NMeY = CN[C@@H](Cc1ccc(O)cc1)C(=O)O; NMeF = CN[C@@H](Cc1ccccc1)C(=O)O"}
{"target": "transferrin receptor (hTfR) (Homo sapiens, UniProt P02786)", "sequence (P02786 whole entry)": "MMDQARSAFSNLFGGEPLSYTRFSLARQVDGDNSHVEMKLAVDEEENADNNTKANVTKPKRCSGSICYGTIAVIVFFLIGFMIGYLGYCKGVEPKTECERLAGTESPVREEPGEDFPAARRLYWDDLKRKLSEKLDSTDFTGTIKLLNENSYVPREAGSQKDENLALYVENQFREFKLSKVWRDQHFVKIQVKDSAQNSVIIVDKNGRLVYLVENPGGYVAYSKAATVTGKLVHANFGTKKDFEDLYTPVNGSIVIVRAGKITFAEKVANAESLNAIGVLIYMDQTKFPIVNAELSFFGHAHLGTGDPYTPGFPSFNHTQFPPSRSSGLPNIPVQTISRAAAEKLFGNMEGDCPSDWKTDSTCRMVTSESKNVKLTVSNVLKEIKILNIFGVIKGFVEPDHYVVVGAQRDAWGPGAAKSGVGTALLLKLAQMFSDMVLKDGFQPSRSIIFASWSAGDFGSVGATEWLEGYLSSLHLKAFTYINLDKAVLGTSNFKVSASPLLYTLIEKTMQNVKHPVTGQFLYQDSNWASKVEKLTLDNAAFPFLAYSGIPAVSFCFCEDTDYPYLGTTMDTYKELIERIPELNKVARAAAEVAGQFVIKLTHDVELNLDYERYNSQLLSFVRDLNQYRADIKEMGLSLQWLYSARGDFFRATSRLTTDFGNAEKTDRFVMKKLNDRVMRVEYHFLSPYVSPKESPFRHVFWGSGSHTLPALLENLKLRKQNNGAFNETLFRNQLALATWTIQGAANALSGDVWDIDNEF", "assay": "Intermolecular interaction evaluation test between transferrin receptor (hTfR) and peptide by surface plasmon resonance (SPR)", "format": "binding", "conditions": "SPR; hTfR No. 894 variants with PEG12c linker (Table 2); read-out: KD", "experimental": "(§1) For each of the various synthesized peptides, the intermolecular interaction of the peptide with the transferrin receptor (hTfR) was tested by surface plasmon resonance (SPR) according to the following method. The specific test method is as follows.\n(§2) An NTA sensor chip (Global Life Sciences Technologies Japan) was inserted in a Biacore T200 (Global Life Sciences Technologies Japan) and a prime operation was performed 3 times with a running buffer: 10 mM HEPES pH 8.0 (Nacalai Tesque), 150 mM NaCl (Nacalai Tesque), 0.05% Tween 20 (Nacalai Tesque), 0.1% BSA (Sigma-Aldrich), 1.0% DMSO (FUJIFILM Wako Pure Chemical) to create an Equilibration state at a flow rate of 30 µL/min. After reacting with 350 mM EDTA solution for 60 seconds at a flow rate of 10 µL/min then reacting with 0.5 mM NiCl2 solution (Kishida Chemical) for 60 seconds at a flow rate of 10 µL/min, the NTA sensor chip was washed with 3 mM EDTA solution (Nacalai Tesque) for 60 seconds at a flow rate of 10 µL/min. After mixing 50 µL each of 60 mM EDC solution (Global Life Sciences Technologies Japan) and 650 mM NHS solution (Global Life Sciences Technologies Japan), the mixture was reacted for 420 seconds at a flow rate of 10 µL/min. By diluting with the running buffer, 150 µL of 3.2 µM hTfR solution was prepared and used for reaction for 600 seconds at a flow rate of 10 µL/min, thereby immobilizing hTfR on the NTA sensor chip. After immobilization, capping was performed by reacting with 1.0 M ethanolamine aqueous solution (Global Life Sciences Technologies Japan) for 420 seconds at a flow rate of 10 µL/min. A peptide dissolution liquid prepared to 10 mM in the DMSO solution was diluted with the running buffer to a final concentration of 10 µM so as to become the peptide dissolution liquid, then peptide solutions of 100 nM, 50 nM, 25 nM, 10 nM and 5 nM were prepared. Kinetics of the peptide to hTfR was acquired by SPR measurement using the above-mentioned samples. Single-cycle kinetics was used as a kinetic evaluation model and curve fitting was performed using Biacore T200 Evaluation Software Version 3.0 (Global Life Sciences Technologies Japan). An obtained sensorgram was subjected to curve fitting using the least-squares method, and the binding of the peptide to hTfR was evaluated by obtaining KD values. […] A chemical structure of hTfR No. 894 is as follows.\n(§3) The variant peptides were synthesized according to Example 1 unless otherwise stated in Example 9 or 10. The linker-added peptides were synthesized according to Example 1, except that Fmoc-NH-SAL-PEG resin (Watanabe Chemical Industries) was used as a resin for the peptide synthesis when the linker was PEG. The peptide, to which a peptide, a fatty acid, PEG, or a conjugate thereof is added as a linker, was also synthesized according to Example 1, unless otherwise stated in Example 9 or 10."}
{"molecule": "CC[C@H](C)[C@@H]1NC(=O)[C@H](Cc2ccc(O)cc2)NC(=O)[C@H](Cc2ccc(O)cc2)NC(=O)[C@H](CC(N)=O)NC(=O)[C@H](Cc2ccc(Cl)cc2)NC(=O)[C@H](C(C)C)NC(=O)[C@H](Cc2ccccc2)N(C)C(=O)[C@H](C(C)C)NC(=O)[C@H](C)NC(=O)CSC[C@@H](C(=O)NCCOCCOCCOCCOCCOCCOCCOCCOCCOCCOCCOCCOCCC(N)=O)NC(=O)[C@H](Cc2ccc(O)cc2)N(C)C(=O)[C@H](Cc2ccc(O)cc2)NC(=O)[C@H](CCCNC(=N)N)NC(=O)[C@H](CCCNC(=N)N)NC(=O)[C@H]([C@@H](C)CC)NC1=O", "note": "[compound 114] ({CH2CO}-AV[NMeF]V[Phe(4-Cl)]NYYIIRRY[NMeY]C[PEG12]-NH2; thioether N-15)", "pKd": "7.00 to 9.00"}
{"molecule": "CC[C@H](C)[C@@H]1NC(=O)[C@H](Cc2ccc(O)cc2)NC(=O)[C@H](Cc2ccc(O)cc2)NC(=O)[C@H](CC(N)=O)NC(=O)[C@H](Cc2c[nH]c3ccccc23)NC(=O)[C@H](C(C)C)NC(=O)[C@H](Cc2ccccc2)N(C)C(=O)[C@H](C(C)C)NC(=O)[C@H](C)NC(=O)CSC[C@@H](C(=O)NCCOCCOCCOCCOCCOCCOCCOCCOCCOCCOCCOCCOCCC(N)=O)NC(=O)[C@H](Cc2ccc(O)cc2)N(C)C(=O)[C@H](Cc2ccc(O)cc2)NC(=O)[C@H](CCCNC(=N)N)NC(=O)[C@H](CCCNC(=N)N)NC(=O)[C@H](C)NC1=O", "note": "[compound 129] ({CH2CO}-AV[NMeF]VWNYYIARRY[NMeY]C[PEG12]-NH2; thioether N-15)", "pKd": "7.00 to 9.00"}
{"molecule": "CC[C@H](C)[C@@H]1NC(=O)[C@H](Cc2ccc(O)cc2)NC(=O)[C@H](Cc2ccc(Cl)cc2)NC(=O)[C@H](CC(N)=O)NC(=O)[C@H](Cc2c[nH]c3ccccc23)NC(=O)[C@H](C(C)C)NC(=O)[C@H](Cc2ccccc2)N(C)C(=O)[C@H](C(C)C)NC(=O)[C@H](C)NC(=O)CSC[C@@H](C(=O)NCCOCCOCCOCCOCCOCCOCCOCCOCCOCCOCCOCCOCCC(N)=O)NC(=O)[C@H](Cc2ccc(O)cc2)N(C)C(=O)[C@H](Cc2ccc(O)cc2)NC(=O)[C@H](CCCNC(=N)N)NC(=O)[C@H](CCCNC(=N)N)NC(=O)[C@H]([C@@H](C)CC)NC1=O", "note": "[compound 142]", "pKd": "6.00 to 7.00"}
{"molecule": "CCCCC[C@@H]1NC(=O)[C@H](CC(N)=O)NC(=O)[C@H](Cc2c[nH]c3ccccc23)NC(=O)[C@H](C(C)C)NC(=O)[C@H](Cc2ccccc2)N(C)C(=O)[C@H](C(C)C)NC(=O)[C@H](C)NC(=O)CSC[C@@H](C(=O)NCCOCCOCCOCCOCCOCCOCCOCCOCCOCCOCCOCCOCCC(N)=O)NC(=O)[C@H](Cc2ccc(O)cc2)N(C)C(=O)[C@H](Cc2ccc(O)cc2)NC(=O)[C@H](CCCNC(=N)N)NC(=O)[C@H](CCCNC(=N)N)NC(=O)[C@H]([C@@H](C)CC)NC(=O)[C@H]([C@@H](C)CC)NC(=O)[C@H](Cc2ccc(O)cc2)NC1=O", "note": "[compound 143]", "pKd": "6.00 to 7.00"}
{"molecule": "CC[C@H](C)[C@@H]1NC(=O)[C@H](Cc2ccc(O)cc2)NC(=O)[C@H](CCCNC(=N)N)NC(=O)[C@H](CC(N)=O)NC(=O)[C@H](Cc2c[nH]c3ccccc23)NC(=O)[C@H](C(C)C)NC(=O)[C@H](Cc2ccccc2)N(C)C(=O)[C@H](C(C)C)NC(=O)[C@H](C)NC(=O)CSC[C@@H](C(=O)NCCOCCOCCOCCOCCOCCOCCOCCOCCOCCOCCOCCOCCC(N)=O)NC(=O)[C@H](Cc2ccc(O)cc2)N(C)C(=O)[C@H](Cc2ccc(O)cc2)NC(=O)[C@H](CCCNC(=N)N)NC(=O)[C@H](CCCNC(=N)N)NC(=O)[C@H]([C@@H](C)CC)NC1=O", "note": "[compound 145] ({CH2CO}-AV[NMeF]VWNRYIIRRY[NMeY]C[PEG12]-NH2; thioether N-15)", "pKd": "7.00 to 9.00"}
{"target": "transferrin receptor (hTfR) (Homo sapiens, UniProt P02786)", "assay": "Intermolecular interaction evaluation test between transferrin receptor (hTfR) and peptide by surface plasmon resonance (SPR)", "format": "binding", "conditions": "SPR; linker and payload (FITC, VivoTag) conjugates; read-out: KD", "experimental": "as §1, §2, §3"}
{"molecule": "CC[C@H](C)[C@@H]1NC(=O)[C@H](Cc2ccc(O)cc2)NC(=O)[C@H](Cc2ccc(O)cc2)NC(=O)[C@H](CC(N)=O)NC(=O)[C@H](Cc2c[nH]c3ccccc23)NC(=O)[C@H](C(C)C)NC(=O)[C@H](Cc2ccccc2)NC(=O)[C@H](C(C)C)NC(=O)[C@H](C)NC(=O)CSC[C@@H](C(=O)NCCOCCOCCOCCOCCOCCOCCOCCOCCOCCOCCOCCOCCC(=O)N[C@@H](CCCCNC(=O)c2ccc(-c3c4ccc(=O)cc-4oc4cc(O)ccc34)c(C(=O)O)c2)C(N)=O)NC(=O)CNC(=O)[C@H]([C@@H](C)O)NC(=O)CNC(=O)[C@H](Cc2ccccc2)NC(=O)[C@H](CCCNC(=N)N)NC(=O)[C@H](CC(=O)O)NC(=O)[C@H](C(C)C)NC1=O", "note": "[compound 151] ({CH2CO}-AVFVWNYYIVDRFGTGC[PEG12]K(X2)-NH2; thioether N-17)", "pKd": "> 9.00"}
{"molecule": "CC[C@H](C)[C@@H]1NC(=O)[C@H](Cc2ccc(O)cc2)NC(=O)[C@H](Cc2ccc(O)cc2)NC(=O)[C@H](CC(N)=O)NC(=O)[C@H](Cc2c[nH]c3ccccc23)NC(=O)[C@H](C(C)C)NC(=O)[C@H](Cc2ccccc2)NC(=O)[C@H](C(C)C)NC(=O)[C@H](C)NC(=O)CSC[C@@H](C(=O)NCCOCCOCCOCCOCCOCCOCCOCCOCCOCCOCCOCCOCCC(=O)N[C@@H](CCCCNC(=O)c2ccc(-c3c4ccc(=O)cc-4oc4cc(O)ccc34)c(C(=O)O)c2)C(N)=O)NC(=O)[C@H](CO)NC(=O)[C@H](CC(N)=O)NC(=O)[C@H](CO)NC(=O)CNC(=O)[C@H](CC(N)=O)NC(=O)CN(CCc2ccccc2)C(=O)[C@H](C(C)C)NC1=O", "note": "[compound 156] ({CH2CO}-AVFVWNYYIV[Gly(NCH2CH2Ph)]NGSNSC[PEG12]K(X2)-NH2; thioether N-17)", "pKd": "7.00 to 9.00"}
{"molecule": "CC[C@H](C)[C@@H]1NC(=O)[C@H](Cc2ccc(O)cc2)NC(=O)[C@H](Cc2ccc(O)cc2)NC(=O)[C@H](CC(N)=O)NC(=O)[C@H](Cc2c[nH]c3ccccc23)NC(=O)[C@H](C(C)C)NC(=O)[C@H](Cc2ccccc2)NC(=O)[C@H](C(C)C)NC(=O)[C@H](C)NC(=O)CSC[C@@H](C(=O)NCCOCCOCCOCCOCCOCCOCCOCCOCCOCCOCCOCCOCCC(=O)N[C@H](CSC2CC(=O)N(c3ccc(-c4c5ccc(=O)cc-5oc5cc(O)ccc45)c(C(=O)O)c3)C2=O)C(N)=O)NC(=O)[C@H](Cc2ccc(O)cc2)N(C)C(=O)[C@H](Cc2ccc(O)cc2)NC(=O)[C@H](CCCNC(=N)N)NC(=O)[C@H](CCCNC(=N)N)NC(=O)[C@H]([C@@H](C)CC)NC1=O", "note": "(stereo partly shown) [compound 165]", "pKd": "7.00 to 9.00"}
{"molecule": "CC[C@H](C)[C@@H]1NC(=O)[C@H](Cc2ccc(O)cc2)NC(=O)[C@H](Cc2ccc(O)cc2)NC(=O)[C@H](CC(N)=O)NC(=O)[C@H](Cc2c[nH]c3ccccc23)NC(=O)[C@H](C(C)C)NC(=O)[C@H](Cc2ccccc2)N(C)C(=O)[C@H](C(C)C)NC(=O)[C@H](C)NC(=O)CSC[C@@H](C(=O)NCCOCCOCCOCCOCCOCCOCCOCCOCCOCCOCCOCCOCCC(=O)N[C@H](CSC2CC(=O)N(c3ccc(-c4c5ccc(=O)cc-5oc5cc(O)ccc45)c(C(=O)O)c3)C2=O)C(N)=O)NC(=O)[C@H](Cc2ccc(O)cc2)N(C)C(=O)[C@H](Cc2ccc(O)cc2)NC(=O)[C@H](CCCNC(=N)N)NC(=O)[C@H](CCCNC(=N)N)NC(=O)[C@H]([C@@H](C)CC)NC1=O", "note": "(stereo partly shown) [compound 166]", "pKd": "7.00 to 9.00"}
{"molecule": "CC[C@H](C)[C@@H]1NC(=O)[C@H](Cc2ccc(O)cc2)NC(=O)[C@H](Cc2ccc(O)cc2)NC(=O)[C@H](CC(N)=O)NC(=O)[C@H](Cc2c[nH]c3ccccc23)NC(=O)[C@H](C(C)C)NC(=O)[C@H](Cc2ccccc2)N(C)C(=O)[C@H](C(C)C)NC(=O)[C@H](C)NC(=O)CSC[C@@H](C(=O)NCCOCCOCCOCCOCCOCCOCCOCCOCCOCCOCCOCCOCCC(=O)N[C@H](CSC2CC(=O)N(c3ccc(-c4c5ccc(=O)cc-5oc5cc(O)ccc45)c(C(=O)O)c3)C2=O)C(N)=O)NC(=O)[C@H](Cc2ccc(O)cc2)N(C)C(=O)[C@H](Cc2ccc(O)cc2)NC(=O)[C@H](CCCNC(=N)N)NC(=O)[C@H](CCCCN)NC(=O)[C@H]([C@@H](C)CC)NC1=O", "note": "(stereo partly shown) [compound 167]", "pKd": "7.00 to 9.00"}
